{"source": "patent US11318154B2", "about": "(priority 2019, dated 2022)", "key": {"[1]": {"tested_on": "Caco-2 cells", "conditions": "Caco-2 cells pretreated with 100-800 μM, then TcdB 0.001 nM to 5 nM; vs control buffer"}, "[2]": {"tested_on": "Caco-2 cells", "conditions": "Caco-2 cells pretreated, TcdB 18 h"}}}
{"smiles": "CC1(C)[C@@H](O[C@H]2O[C@H](C(=O)O)[C@@H](O)[C@H](O)[C@H]2O[C@@H]2O[C@H](C(=O)O)[C@@H](O)[C@H](O)[C@H]2O)CC[C@]2(C)[C@H]3C(=O)C=C4[C@@H]5C[C@@](C)(C(=O)O)CC[C@]5(C)CC[C@@]4(C)[C@]3(C)CC[C@@H]12", "note": "[glycyrrhizin]", "values": [{"measurement": "caspase activation", "setting": "[1]", "value": "reduced caspase activation"}, {"measurement": "onset of TcdB-induced cell rounding", "setting": "[2]", "value": "delayed the onset"}]}
